Here are results for 45 sequences from the supplement of paper PMC11417369.

This is one part of the list.

The subject of this test is PF3D7_0420300 AP2 domain 1 (GST-tagged). Nature of the test: gcPBM binding intensity (ln(normalized median fluorescence intensity)); higher = stronger DNA binding. The method in brief:
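For binding intensity, the highest Masliner-normalised natural-log median intensity across replicate spots of either probe orientation was taken. Protein bound to the array was stained with Alexa488 anti-GST antibody and scanned at 488 nm. The protein, GST-tagged P. falciparum DNA-binding domains from E. coli at about 25 μg on average, had been applied for 1 h to an Agilent 4 × 180k array of primer-extended double-stranded 36-bp intergenic genomic probes and negative controls.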
Turning to “ACAAAACATAATTGTTGTACAAAAAGAATTATATAT [XGTACX_site8422]”, the “gcPBM binding intensity (ln)” value is 9.39.
The same measure for “AAATAAAAATTACAAGCATGCATTTTCCTATTTGCA [TGCATGCA_site861]”: 9.07; for “GTGTAAAAATTAAAGTGTACACATATATATATATAT [XGTACX_site2251]”: 9.35.
In the case of “TGGATGAGGACATACACACACACATAAGTTGATACA [CACACA_site3423]” it was 9.98; in that of “TTATATTTTAAGAAATGTACATGATATAATTATCAA [XGTACX_site8693]”, 8.97; in that of “AATGAAAAGGAACATACACACCCCATATAAATATAT [CACACA_site7588]”, 9.8.
On to “TATTTCTTATGAAGGACATGCAATATTATTTATCTC [TGCATGCA_site683]”, for which the “gcPBM binding intensity (ln)” value worked out at 9.04.
Turning to “TTTTTTTTAATTTTCTGTACAAATTTATATATACTA [XGTACX_site4251]”, the “gcPBM binding intensity (ln)” value was found to be 9.25.
For the sequence “ATGTAGAAGTAATGCACACATATGTATATATATATA [CACACA_site2494]”, the “gcPBM binding intensity (ln)” value was 9.62.
As to “GGTCTTTTTATGATATGTACTTATATAATATTATAT [XGTACX_site6458]”, the “gcPBM binding intensity (ln)” value came out at 9.59.
In the case of “AACAGCATGAAGTAAAGTACTAGTTTTATTTATTTA [XGTACX_site1116]” it was 9.1.
The same measure for “AGGAAATTTTTTTTTTTTTTTTTTTTTTTTTTTTAC [TGCATGCA_negctrl_site170]”: 8.71; for “ATAATATATAATATAGTGCATTATTTATTAATTAAT [GTGCAC_site9852]”: 9.16.
The same measure for “ATAGATGTCTTCATATGTACATAAATTCAAGTATAT [XGTACX_site7492]”: 9.05; for “TGATTATAAAAGTAGGTGCTACAAAAATTACACATT [GTGCAC_site9530]”: 9.19; for “TGATAAGTATACTAAAGTACATGAAAAATAACTTCC [XGTACX_site6908]”: 9.24.
Turning to “TCCTAATGGTTTAATTGTACAAAAAAAAAAAATATA [XGTACX_site322]”, the “gcPBM binding intensity (ln)” value was 8.85.
In the case of “CAAAATATTATGAATTGTACATATTTTAAAACGTTT [XGTACX_site1614]” it was 9.15.
The same measure for “TATATATAATATGAATGTACACAAAAAGGTAATACA [XGTACX_site6202]”: 9.46; for “AAAAAAAAGAAATAGACACACATATATTTTTAAACA [CACACA_site3954]”: 9.45; for “TATAATTTTTTTGAATTATATATATATATATATAAT [XGTACX_negctrl_site26]”: 8.86.
Turning to TGATATAAAATTAAAGTGCAAAAAAAAAATAAAAAA, the “gcPBM binding intensity (ln)” value was 9.39.
Take “ATAATATTATGAACCTGTACATAATTTTTCTTTTCT [XGTACX_site3377]”: the “gcPBM binding intensity (ln)” value was 9.09.
In the case of “AGTATATTTCTAACTTGTACGAAATTAATAATTTAT [XGTACX_site6635]”, the “gcPBM binding intensity (ln)” value came out at 9.06.
The same measure for “ACAGCTCTAGGACATGCATGTTATATAGAAAAAGAG [TGCATGCA_site703]”: 9.16.
In the case of “TTCTTTATATAAACAAGTACATATAAAATACATATA [XGTACX_site8036]” it was 9.02.
As for “AAGTTAATGTTTTGCGCACACTTCTTTTTAATATAA [CACACA_site3938]”, the “gcPBM binding intensity (ln)” value came out at 9.61.
Take “TTCATTAAAGTTATTACACACAGTTCTTCAACCAAA [CACACA_site7613]”: the “gcPBM binding intensity (ln)” value turned out to be 9.29.
Take “AAATACATATTTAGAAGTACATTTATACATTTAATA [XGTACX_site8871]”: the “gcPBM binding intensity (ln)” value is 9.23.
With “TATATATTAAGATGCACACACAAGAAGTAATTATAA [CACACA_site5726]”, the “gcPBM binding intensity (ln)” value turned out to be 9.82.
Turning to “ATTTTTTCTTATAAAAAAGAAAAAGAAAAAGAAAAA [CACACA_negctrl_site1216]”, the “gcPBM binding intensity (ln)” value is 8.66.
In the case of “AGACATATTCTTTTTACACACTTGAATAAAAAATAT [CACACA_site1205]”, the “gcPBM binding intensity (ln)” value stood at 9.11.
The same measure for “CATTTTATAAAAACAAGTACCCAACATATATATAAT [XGTACX_site5955]”: 9.38.
In the case of “TTTTTTTCTTAAAGATGTACTTTTTAAAAACAATCT [XGTACX_site986]” it was 8.79; in that of “GATGAGGACAGACACACACACATAAGTTGATACATA [CACACA_site7580]”, 9.89; in that of “GTTTTTACTTTTATCTGTACATAATACTACCAATAT [XGTACX_site5414]”, 9.47.
The same measure for CTGTACACTTAAACGGTGCAAAAAGAAAAAAAAGAA: 9.21.
On to “GTTGGGTAATTCGTAACACACATAAAATATATATAA [CACACA_site3986]”, for which the “gcPBM binding intensity (ln)” value turned out to be 9.42.
As to “CACGCGCACCAACACACACACACACCCATATATATA [CACACA_site2204]”, the “gcPBM binding intensity (ln)” value stood at 10.3.
The same measure for “TGCCTATGACATGAATGTACATTAAAATTAAATAAA [XGTACX_site7126]”: 8.9.
In the case of “CACACTTGCTCCTGTTGTACATAACCATAAGCAACA [XGTACX_site2102]” it was 9.17.
As for “TGAATATAACAAATATGTACTTAAAATTGTTATATT [XGTACX_site5679]”, the “gcPBM binding intensity (ln)” value worked out at 9.12.
With “ATTATTAAAAATATGGGTACATATTATTGTTATATA [XGTACX_site1958]”, the “gcPBM binding intensity (ln)” value was 9.08.
Take “AAAAAAAAAAAAAAATGTACATGACATGACATGACA [XGTACX_site4020]”: the “gcPBM binding intensity (ln)” value came to 8.91.
For the sequence “TTATATTTTACAAATGCACACATAATTTTTTTTTTT [CACACA_site8890]”, the “gcPBM binding intensity (ln)” value was 9.28.
